Results taken from the supplement of paper PMC9433436.
± gives the standard deviation of the averaged measurements. In all, about 4,100 sequences were measured (“relative kcat/Km (krel) vs genomic leader AAAGAU”: median about 1.7, highest 2% from about 6.5 on). Only a part is listed here, and it is no random draw.

Biological target: T1, E. coli RNase P holoenzyme (M1 P RNA + rnpA protein) (UniProt P0A7Y8)
T1 sequence: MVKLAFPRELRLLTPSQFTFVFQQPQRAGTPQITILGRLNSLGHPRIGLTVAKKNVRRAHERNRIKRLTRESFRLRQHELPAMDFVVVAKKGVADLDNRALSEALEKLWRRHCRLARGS
Assay: relative kcat/Km (krel) vs genomic leader AAAGAU (relative (reference leader = 1)); higher = faster RNase P cleavage
Experimental: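 HTS-Kin: a pool of ptRNA-Met (21C construct) with all 4096 combinations of 5' leader nucleotides N(-6) to N(-1) was processed in vitro by E. coli RNase P (P RNA + rnpA/C5 protein) under multiple-turnover conditions at 37 C, pH 8, 17.5 mM MgCl2. Residual substrate was Illumina-sequenced at several fractions reacted, and relative kcat/Km (krel) was computed by internal competition kinetics, calibrated to the genomic leader (AAAGAU = 1). The listed hexamer is the varied N(-6)..N(-1) leader (DNA letters), and it sits between a fixed 5' stem-loop flank (GCAUGCACGAAAGUGCGUGCUAUGAA) and the mature tRNA-Met starting GGCUACGUAGCUCAGUUGG. Two technical replicates are averaged.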

[1] = fraction of substrate reacted: ~26-29% (28.66% repeat 1, 26.4% repeat 2)
[2] = fraction of substrate reacted: ~9-10% (9.79% repeat 1, 9.1% repeat 2)
[3] = fraction of substrate reacted: ~13-16% (15.68% repeat 1, 13.17% repeat 2)

Sequence	relative kcat/Km [1]	relative kcat/Km [2]	relative kcat/Km [3]
TAATGT	2.37 ± 2.3	–	–
ACGCAG	1.49 ± 0.28	0.448 ± 0.095	–
TGCGAG	1.39 ± 0.28	–	0.318 ± 0.22
TCGTGG	1.06 ± 0.46	0.584 ± 0.19	–
TGCCGC	3.68 ± 0.97	2.45 ± 1.5	2.57 ± 0.23
AGTTAA	7.15 ± 2.6	3.63 ± 1.5	5.9 ± 0.68
CTTATG	2.15 ± 0.35	1.82 ± 1.8	0.705 ± 0.59
ACTGCA	1.37 ± 0.24	0.87 ± 0.37	0.819 ± 0.09
CTCATG	3.1 ± 0.052	–	1.28 ± 0.22
CACCCC	3.14 ± 1.3	1.67 ± 0.38	2.1 ± 0.89
ACTTCT	3.19 ± 0.94	2.31 ± 0.79	2.78 ± 0.18
TCGAGT	0.529 ± 0.17	–	0.672 ± 0.41
ATGATC	2.3 ± 0.83	2.3 ± 0.63	1.98 ± 0.29
CGTTAG	4 ± 1.2	2.87 ± 1.6	2.22 ± 0.3
CAACCC	1.22 ± 0.096	1.41 ± 0.43	1.26 ± 0.56
ATCGAA	8.19 ± 3.6	3.16 ± 0.35	5.71 ± 1.4
CATGAG	1.2 ± 0.17	–	–
CAGCGC	2.09 ± 0.64	1.95 ± 0.83	1.4 ± 0.14
AGACCA	1.64 ± 0.34	1.27 ± 0.22	1.42 ± 0.018
GCTAAA	1.95 ± 0.53	2.13 ± 1.7	1.47 ± 0.58
GATCAC	5.26 ± 2.1	2.93 ± 0.77	4.27 ± 1.3
TTTGTC	2.4 ± 0.88	1.05 ± 0.19	1.43 ± 0.32
CGCCCA	2.48 ± 0.8	1.85 ± 0.27	2.38 ± 1.3

Sequence	relative kcat/Km [1]	relative kcat/Km [2]	relative kcat/Km [3]
GTCGGG	1.35 ± 1.2	–	–
GATTTC	3.08 ± 1.1	2.78 ± 0.97	2.06 ± 0.32
ATTGGA	1.1 ± 0.92	–	–
TCACTC	4.17 ± 1.6	2.98 ± 1.1	3.39 ± 0.6
ATACCC	1.6 ± 0.78	1.05 ± 0.23	1.06 ± 0.49
TAGACT	2.46 ± 0.38	1.57 ± 0.72	1.78 ± 0.12
TGCAGC	2.46 ± 0.81	1.49 ± 0.18	1.27 ± 0.17
CTAGTC	1.2 ± 0.19	1.27 ± 0.6	1.23 ± 0.52
TTAAAG	2.39 ± 0.35	–	0.945 ± 0.13
GTTGTC	1.29 ± 0.029	1.22 ± 0.7	0.978 ± 0.41
GTAACT	1.84 ± 0.14	1.61 ± 1.5	0.842 ± 0.58
CAACAA	2.71 ± 0.97	1.73 ± 0.16	1.93 ± 0.43
GTGCGA	0.912 ± 0.3	0.924 ± 0.86	0.399 ± 0.18
GAGCTC	0.989 ± 0.38	0.875 ± 0.65	–
TGTGCT	0.802 ± 0.18	0.945 ± 0.82	–
GCAGAC	1.91 ± 0.18	0.808 ± 0.24	1.34 ± 0.71
CGAATG	1.16 ± 0.56	–	–
CGAACG	0.73 ± 0.69	–	–
GATGCA	1.08 ± 0.16	0.743 ± 0.17	1.11 ± 0.46
ATACTA	1.85 ± 0.34	1.88 ± 1.2	1.52 ± 0.6
ACGCCA	1.64 ± 0.41	1.04 ± 0.45	0.894 ± 0.25
ACCGCG	1.56 ± 0.95	–	0.685 ± 0.57
TGTCCA	2.67 ± 1.3	1.6 ± 0.34	2.33 ± 0.84

Sequence	relative kcat/Km [1]	relative kcat/Km [2]	relative kcat/Km [3]
CCCGTT	2.1 ± 0.67	1.08 ± 0.35	2.03 ± 0.24
GGTCAT	4.09 ± 2.1	1.45 ± 0.43	2.14 ± 0.21
GAATTA	2.25 ± 0.75	1.25 ± 0.15	1.82 ± 0.37
ACCCTC	2.807 ± 0.02	2.85 ± 2	2.41 ± 0.28
GCCATC	4.62 ± 1.3	2.88 ± 0.72	3.43 ± 1.3
AACGGG	0.891 ± 0.48	–	–
CATCGG	0.655 ± 0.38	–	–
GGTACC	1.16 ± 0.23	1.24 ± 0.92	1.15 ± 0.14
CAGAAA	3.42 ± 0.13	2.35 ± 2	3.24 ± 0.65
GGCCCC	1.62 ± 0.37	0.72 ± 0.13	0.988 ± 0.15
GTACCA	1.45 ± 0.6	1.52 ± 1.1	1.13 ± 0.32
GCGGAG	0.583 ± 0.36	–	–
AAGCAA	1.98 ± 0.49	1.01 ± 0.21	1.75 ± 0.23
CACCAT	7.01 ± 2.9	4.34 ± 1.2	4.72 ± 0.96
CTGCTG	0.453 ± 0.36	–	–
CATTCC	3.45 ± 1.6	2.66 ± 0.74	2.47 ± 0.84
GGTTAA	1.35 ± 0.6	0.853 ± 0.094	1.16 ± 0.33
ACGACC	1.77 ± 0.14	1.02 ± 0.14	1.39 ± 0.44
ACGTGG	0.71 ± 0.24	–	–
AGCAAT	3.3 ± 1.1	2.43 ± 0.54	2.33 ± 0.049
AACCGA	4.66 ± 1.2	2.67 ± 0.52	3.23 ± 0.34
TATCGC	6.07 ± 2.4	3.54 ± 1.1	4.59 ± 0.51
GAAGCT	0.958 ± 0.24	1.14 ± 0.78	0.844 ± 0.63

Sequence	relative kcat/Km [1]	relative kcat/Km [2]	relative kcat/Km [3]
AGACTG	0.856 ± 0.39	–	–
ACCGGC	–	1.08 ± 0.83	–
CCCTAG	4.45 ± 1.2	3.11 ± 1.7	2.55 ± 0.57
CGTGAA	2.87 ± 0.64	2.15 ± 0.028	3.13 ± 1.1
TTTAAG	3.46 ± 0.87	1.93 ± 1.5	1.69 ± 0.026
GCGTAC	3.77 ± 1.5	2.64 ± 0.68	1.98 ± 0.25
TCCGTG	1.91 ± 0.025	–	–
GAGGCT	1.18 ± 0.69	0.402 ± 0.011	–
GCTATC	1.645 ± 0.013	1.45 ± 0.98	0.842 ± 0.77
TTGGCC	0.355 ± 0.29	–	0.606 ± 0.17
GCGCTC	1.48 ± 0.05	0.9 ± 0.13	0.964 ± 0.85
CCGACC	1.68 ± 0.81	–	1.1 ± 0.28
GTAGTT	1.39 ± 1.1	1.73 ± 0.71	1.11 ± 0.18
TCCACT	4.72 ± 1.1	2.76 ± 1.1	3.06 ± 0.4
GGGGAC	1.42 ± 0.45	0.497 ± 0.46	–
GATCAA	3.21 ± 1.1	1.51 ± 1.2	1.86 ± 0.76
ACCTGC	5.37 ± 2.5	3.58 ± 3.5	3.61 ± 2.3
GCTATT	2.42 ± 0.74	1.8 ± 1.4	1.66 ± 0.13
TCGTCG	2.54 ± 0.36	2.21 ± 2	0.914 ± 0.037
CGGTCC	0.889 ± 0.14	–	–
ATGCTT	1.21 ± 0.11	1 ± 0.46	0.914 ± 0.33
GGTCGG	1.11 ± 0.022	–	–
AGGACA	1.09 ± 0.055	0.85 ± 0.69	–

Sequence	relative kcat/Km [1]	relative kcat/Km [2]	relative kcat/Km [3]
GGAGGC	1.17 ± 0.87	–	–
GATGAC	3.78 ± 0.99	2.24 ± 0.28	3.37 ± 1.1
AGGATG	0.66 ± 0.62	–	–
TCCAGT	2.37 ± 1.9	–	–
CTGCGC	1.85 ± 0.5	2.66 ± 0.34	1.36 ± 0.78
CCTACC	2.17 ± 0.89	1.71 ± 0.4	0.951 ± 0.36
TAAGAA	3.35 ± 1.5	1.86 ± 0.2	2.65 ± 0.13
TTGCAC	3.33 ± 0.78	2.41 ± 1.3	2.27 ± 0.05
TGATCA	3.08 ± 0.97	2.5 ± 0.96	2.721 ± 0.0099
ACGCAA	2.25 ± 0.13	1.95 ± 1.4	1.95 ± 0.18
CGCTTA	4.1 ± 1.3	2.24 ± 0.029	2.53 ± 0.65
AAACTC	1.87 ± 0.79	1.47 ± 0.23	1.31 ± 0.23
TTGAGG	0.878 ± 0.018	–	0.396 ± 0.31
ACTGTC	1.12 ± 0.25	1.77 ± 1.3	0.935 ± 0.31
AAAAAA	1.34 ± 0.51	–	0.905 ± 0.46
GCGTTG	0.93 ± 0.16	0.523 ± 0.22	–
TGTACC	3.02 ± 1.1	2.23 ± 1.2	2.25 ± 0.53
ATAGGA	1.47 ± 1.2	–	–
CTCATA	6.23 ± 2.5	3.84 ± 2.5	4.93 ± 0.27
CGACGC	3.33 ± 1.1	1.56 ± 0.22	2.23 ± 1.2
GTATGA	5.31 ± 1.5	3.37 ± 1.2	3.58 ± 0.83
CCGGAC	1.06 ± 0.4	1.19 ± 0.53	1.26 ± 0.22
GCGCAC	2.71 ± 0.92	1.47 ± 0.19	1.68 ± 0.2

Sequence	relative kcat/Km [1]	relative kcat/Km [2]	relative kcat/Km [3]
TCGCAT	5.13 ± 2.3	2.12 ± 0.11	3.11 ± 0.57
TGCTAG	2.44 ± 0.12	1.97 ± 1.5	1.376 ± 0.0054
GAGACG	0.922 ± 0.017	0.628 ± 0.54	–
AGAGAC	3.89 ± 1	3.09 ± 1.1	2.96 ± 0.46
CGCGGC	0.918 ± 0.47	0.659 ± 0.64	0.88 ± 0.63
GCAAGT	2.03 ± 1.9	–	–
ATGGGT	1.36 ± 0.96	–	–
GAAGCA	0.987 ± 0.14	–	0.92 ± 0.54
GACGTT	2.25 ± 0.83	1.51 ± 0.6	1.95 ± 0.25
CGCTCG	1.83 ± 0.12	0.98 ± 0.46	–
CGCCCT	3.34 ± 0.87	2.35 ± 0.5	2.5 ± 0.76
TCACGT	2.17 ± 1.9	–	–
TCAAAC	3.35 ± 1.1	1.67 ± 0.57	2.29 ± 0.36
GGCCCG	0.796 ± 0.22	0.189 ± 0.11	–
CACCTT	4.75 ± 1.7	2.74 ± 1.1	3.78 ± 0.4
GTGGGG	1.49 ± 1.3	–	–
TCGATT	3.05 ± 1.1	2.16 ± 0.43	1.87 ± 0.66
TCTCTT	3.18 ± 1.3	1.52 ± 0.23	2.64 ± 0.56
CAATCG	1.17 ± 0.2	–	0.566 ± 0.54
CTGCTA	1.61 ± 0.3	0.997 ± 0.058	0.732 ± 0.51
GCGCAG	1.7 ± 0.14	1.13 ± 0.61	0.385 ± 0.34
